Assay results reported in patent US20060275295A1 (published 2006).

Biological target: T1, human THAP1 (THanatos-Associated Protein-1), full length (human, UniProt Q9NVV9 1-213)
T1 construct: Used as Gal4-BD (pGBKT7) or Gal4-AD (pGADT7, pGAD424) fusion in yeast two-hybrid and as 35S-labelled in vitro translated protein (template pGBKT7-THAP1); also called hTHAP1; THAP1 wild type
T1 sequence: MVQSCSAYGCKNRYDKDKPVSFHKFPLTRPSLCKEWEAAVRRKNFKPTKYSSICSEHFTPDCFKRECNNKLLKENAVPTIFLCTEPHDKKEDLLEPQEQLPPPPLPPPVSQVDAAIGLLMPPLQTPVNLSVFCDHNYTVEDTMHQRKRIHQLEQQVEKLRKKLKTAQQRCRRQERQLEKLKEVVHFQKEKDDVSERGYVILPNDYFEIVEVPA
Experiment: yeast two-hybrid, AH109, His/Ade selection
From the text: 285) and CXCL10-2 (5′-[…]-3′) (SEQ ID NO. 286), No. 2403734 (IFNγ) with primers IFN-1 (5′-[…]-3′) (SEQ ID NO: 287) and IFN-2 (5′-[…]-3′) (SEQ ID NO: 288). The PCR products were digested with EcoRI and BamHI, and cloned between EcoRI and BamHI cloning sites of vector pGBKT7 (Clontech).

binding result: binds
B1: human chemokine CXCL10, mature form ([…]) (ligand)
chain: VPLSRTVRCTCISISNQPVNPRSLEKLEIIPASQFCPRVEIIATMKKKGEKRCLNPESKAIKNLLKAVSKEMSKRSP
notes: Gal4-BD fusion (pGBKT7) in yeast or in vitro translated from pGBKT7-CXCL10; tags not built in; also called IP10/CXCL10; IP10
